Source: PubChem BioAssay AID1508624 (National Center for Advancing Translational Sciences (NCATS), 2021)
In all, about 48,000 compounds went through this assay and about 120 (0.25%) were called active. Inconclusive results (about 4%) are left out. Calls come from the whole dose curve; as a rule, active = well fitted activation curve with a large enough effect; inconclusive = small, poorly fitted or top-dose-only effect, or another doubt; inactive = no such curve, though single readings can be large or run the other way. The list shows a part of the results.

Assay: Primary qHTS for Identification of Small Molecule Activators of Huntingtin-Antisense Promoter Activity; note: nearly all actives have a fitted effect of over 55% in size
Conditions: HEK293 HTT-AS promoter firefly luciferase reporter, 24 h; series mostly up to 57.5 µM; activity change, positive = activation: at the top concentration
Procedure, shortened: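 HEK293 cells carrying firefly luciferase reporters were seeded at 2,500 per well in Opti-MEM and cultured for 24 h. They were then treated with compounds at up to 57.5 uM final for 24 h at 37 degrees C before Dual-Glo luminescence readout.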

Activity change, positive = activation, inactive:
Cc1cc(C)c(Cn2c(C(O)c3ccccc3)nc3ccccc32)c(C)c1 (stereo not given) -25.2%, CCN1CCN(CCCNC(=O)c2ccc3c(c2)sc2nc(-c4ccc(OC)cc4)cn23)CC1 -13%, CCOC(=O)c1c(-c2ccc(OC)cc2)oc2ccc(OCc3ccc(C(=O)OC)cc3)cc12 -19.3%, CCNc1c(NC(=O)c2cc(OCC)c(OCC)c(OCC)c2)c(=O)oc2ccccc12 -18.2%, CC(NC(=O)C(=O)Nc1c2c(nn1-c1ccc(F)cc1)CSC2)c1ccccc1 (stereo not given) -16%, COc1cccc(CNC(=O)CCn2cccn2)c1 -0.486%, CCOC(=O)CSc1nc2ccc(NC(=O)c3ccccc3)cc2s1 -6.61%, Cc1ccc(C)c(N2CCN(Cc3nnc(-c4ccccc4)o3)CC2)c1 3.72%, COc1cccc(C(=O)c2cn(CC(=O)Nc3cccc(C)c3C)c3nc(C)ccc3c2=O)c1 -13%, CCOCCCn1c(SCC(=O)Nc2ccc(OC)cc2OC)nc2ccccc2c1=O -12%, CCc1ccc(C(=O)Nc2ccc3nn(-c4ccc(C)c(Cl)c4)nc3c2)cc1 4.67%, Cc1cccc(C)c1NC(=O)Cn1nc(C)c2sc3ccccc3c2c1=O -5.18%, Cc1ccc(CN2CCc3nc(SCC(=O)Nc4cccc(C)c4C)[nH]c(=O)c3C2)cc1 0.0664%, CCN(Cc1ccccc1)C(=O)CN1C(=O)COc2ccc(S(=O)(=O)N3CCCCCC3)cc21 -24.6%, CCn1cc2nc(SCc3ccccc3F)n(Cc3ccc(C)cc3)c(=O)c2n1 -6.59%, Cc1ccc(NC(=O)CCS(=O)(=O)c2cccc3nsnc23)c(C)c1 -18.9%, CCOc1ccc(NC(=O)CCS(=O)(=O)c2ccc3c(c2)n(C)c(=O)c(=O)n3C)cc1 -12.2%, CCOc1ccc(NC(=O)CSc2nc(-c3ccc(F)cc3)cc(C(F)(F)F)c2C#N)cc1 -5.02%, Cc1ccc2cccc(NC(=O)C(C)(C)Oc3ccc(Br)cc3)c2n1 -14.1%, CCOC(=O)c1ccccc1NC(=O)Cn1c2ncccc2c(=O)n1-c1ccccc1 7.89%, COC(=O)c1cc2occc2n1Cc1nc(-c2ccc(C)cc2)oc1C -10.5%, Cc1nc2c(C(=O)NC(C)c3ccccc3)cnn2c(C)c1Cc1ccccc1 (stereo not given) -54.4%, C[C@@]12O[C@@H](C[C@]1(O)CO)n1c3ccccc3c3c4c(c5c6ccccc6n2c5c31)CNC4=O -50%, CC1=C(CC(=O)O)c2cc(F)ccc2C1=Cc1ccc(S(C)=O)cc1 (stereo not given) -54.1%, CCC(=O)Nc1nnc(S(=O)(=O)N2CCc3ccccc32)s1 -19%, O=C(CCNS(=O)(=O)c1ccc2c(c1)CCN2C(=O)C1CC1)Nc1ccc(F)cc1F -27%, COc1ccc(N2CC(NC(=O)c3ccc(S(=O)(=O)N4CCCCC4)cc3)CC2=O)cc1OC (stereo not given) -29.1%, Cc1cccc(NC(=O)c2cc(S(=O)(=O)N3CCC4(CC3)OCCO4)ccc2F)c1 -18%, COc1cc(OC)cc(-c2nc3nc(C)c(CCC(=O)Nc4cc(F)ccc4F)c(C)n3n2)c1 -20.3%, CCOC(=O)c1ccc(NC(=O)Cn2cc(C(=O)c3ccc(Cl)cc3)c(=O)c3ccc(C)nc32)cc1 -29.1%, O=C(NCCc1csc(-c2ccc(F)cc2)n1)c1ccc(Br)o1 -21.2%, Cc1ccccc1CN1CCN(CC(=O)NCc2ccccc2Cl)C1=O 26.3%, CCSc1ncc(Cl)c(C(=O)Nc2c(C(=O)c3ccccc3)oc3ccccc23)n1 -2.75%, COc1ccc2oc(-c3ccc(C)c(NC(=O)Cc4ccc(Cl)cc4)c3)nc2c1 -5.09%, Cc1c(NC(=O)c2cc(=O)c3cc(Cl)ccc3o2)c(=O)n(-c2ccccc2)n1C 2.11% [at 11.5 µM, percent change from vehicle, -100% = no light], Cc1cccc(-c2nc(Cn3c(SCc4cccc(C(F)(F)F)c4)nc4ccncc43)c(C)o2)c1 -30.2%, Fc1ccc2c(c1)NC(c1ccncc1)=NC(c1cccs1)=N2 -4.84%, CCn1c(SCc2ccccc2F)nc(=O)c2c(C(=O)OC)cc(C3CC3)nc21 -42.3%, CCCNc1ccc(-c2nc(-c3ccncc3)no2)cc1[N+](=O)[O-] -3.26%, CCOc1ccc(-c2cc(C(=O)NCc3ccc(C)cc3)c3ccccc3n2)cc1 7.38%, Cc1cccc(N2CCN(C(=O)c3ccc(NC(=O)c4nsc5ccccc45)cc3)CC2C)c1 (stereo not given) -47%, CCOc1ccc(Cl)cc1C1CC(=O)Nc2cc(OC)c(OC)c(OC)c21 (stereo not given) 0.346%, NC(=O)C(c1ccccc1)(c1ccccc1)[C@@H]1CCN(CCc2ccc3c(c2)CCO3)C1 -7.28%, CCOC(=O)C1CCCN(C(=O)Cn2ncc3c([nH]c4ccc(C)cc43)c2=O)C1 (stereo not given) -17.1%, CCCC(CCC)C(=O)Nc1cccc(-c2cn3cccnc3n2)c1 6.12%, Cc1ccc(C)c(N2CCN(C(=O)c3ccc4[nH]c(C)c(C)c4c3)CC2)c1 -38.5%, CCOC(=O)c1ccc(NC(=O)C2CCN(S(=O)(=O)c3ccc(C)cc3)CC2)cc1 -8.43%, CC(=O)c1nn(-c2ccc(OC(F)(F)F)cc2)nc1Nc1ccc(C)cc1 -8.49%, COc1ccccc1CNC(=O)CS(=O)Cc1nc(-c2ccc(OC)c(OC)c2)oc1C (stereo not given) -16.6%, Cc1ccc(CCNC(=O)c2ccc(CSCc3ccccc3C)o2)cc1 -17.7%, CCCNCC(O)COc1ccccc1C(=O)CCc1ccccc1 (stereo not given), CCC1CN(C(=O)N2CCC(C(=O)O)CC2)c2cc(C)ccc2O1 (stereo not given) -2.59%, COc1ccc(Nc2cc(C)c3cc(NC(=O)Cc4c(F)cccc4Cl)ccc3n2)cc1 -29.8%, CCN(Cc1ccccc1)C(=O)C1CCN(S(=O)(=O)c2c(C)noc2/C=C/c2ccc(C)cc2)CC1 -27.4%, COc1ccccc1CNC(=O)c1sc2nc3n(c(=O)c2c1C)CCC3 10.2%, CCOc1ccc(CNS(=O)(=O)c2ccc(-c3cc(C(F)(F)F)on3)s2)cc1 -19.9%, COc1ccc(CCNC(=O)Cn2cc(S(=O)(=O)Cc3cccc(Cl)c3)c3ccccc32)cc1OC -17.7%, COc1ccc(-c2noc(CSc3nnc(-c4ccc(Cl)cc4)n3C)n2)cc1OC -17%, CCc1cnc2c(c1SCC(=O)Nc1cc(Cl)ccc1OC)c(=O)n(C)c(=O)n2C -12.3%, Cc1ccc(Cl)cc1NC(=O)CSc1nc(C)c(C)c(C)c1C#N -11.7%, CCOc1ccccc1NC(=O)CSc1nc2c(oc3ccccc32)c(=O)n1Cc1ccco1 -21.9%, CCOC(=O)c1cnc2c(C(F)(F)F)cccc2c1Nc1cccc(C(=O)OC)c1 -36.5%, Cc1ccc(CNC(=O)C2CCCN(S(=O)(=O)c3ccc4c(ccn4C)c3)C2)cc1 (stereo not given) 1.06%, CN1CCN(C(=O)Nc2cccc(Cl)c2)c2cccnc21 2.84%, CCCCN(CCCC)CCNC(=O)c1cc(=O)[nH]c2ccc(S(=O)(=O)N3CCCCCC3)cc12 -9.16%, CC(C)c1ccc(NC(=O)CSc2nc(=O)n(Cc3cccnc3)c3c2CCC3)cc1 -42.6%, CCc1ccc(CNC(=O)C2CCN(C(=O)N3CC(CC)Oc4ccc(C)cc43)CC2)cc1 (stereo not given) -31.8%, COc1ccccc1Nc1c2c(nc3ccc(NC(=O)c4cccc(F)c4)cc13)CCCC2 -93.5%, Cc1cc(C)c(NC(=O)CSc2ncc(S(=O)(=O)c3ccc(C(C)(C)C)cc3)c(=O)[nH]2)c(C)c1 -6.79%, O=C(NC1CCCC1)c1ccc2c(c1)N(Cc1ccccc1Cl)C(=O)c1ccccc1S2 -15.7%, Cc1ccc(OCc2nc(-c3ccc(C(=O)NCCc4ccc(S(N)(=O)=O)cc4)cc3)oc2C)cc1 -26%, COC(=O)c1c(NC(=O)CCCOc2ccccc2C)sc2c1CCC(C)C2 (stereo not given) 0.545%, COc1ccccc1CNC(=O)CN1C(=O)CCc2cc(S(=O)(=O)N3CCOCC3)ccc21 -4.48%, COc1ccc(CNC(=O)c2c(Nc3ccccc3C)sc(C(=O)c3ccccc3)c2N)cc1 -45.4%, COc1cc2[nH]c(=O)n(CCCC(=O)NCc3ccccc3)c(=O)c2cc1OC -7.98%, CCc1ccc(NC(=O)CCCc2nc(-c3ccco3)no2)cc1 -12.3%, CC1CN(C(=O)N2CCC(C(=O)NCc3ccco3)CC2)c2cc(Cl)ccc2O1 (stereo not given) -5.95%, Cc1ccc(NC(=O)CN2C(=O)CCc3cc(S(=O)(=O)N4CCCCC4)ccc32)cc1N(C)C -35.5%, COc1ccc(NC(=O)c2cc(-c3ccccc3O)no2)cc1 9.77%, CCOC(=O)c1cccc(N)c1 2.4%, CCOc1ccc(NC(=O)CNS(=O)(=O)c2ccc(Br)s2)cc1 -41.3%, CCOC(=O)c1sc2ccccc2c1S(=O)(=O)N1CCN(c2ccccc2)CC1 -36.1%, COc1ccc(-c2nc3scc(CCNC(=O)Cc4ccc(F)cc4)n3n2)cc1 -15.4%, CCC(C)NC(=O)c1ccc2nc(Cc3ccccc3)oc2c1 (stereo not given) 4.45%, O=C(Nc1cccc2c(=O)cc(-c3nn[nH]n3)oc12)c1ccc(OCCCCc2ccccc2)cc1 -31.1%, O=C(Nc1cc(Cl)cc(Cl)c1)c1ccc(F)c(S(=O)(=O)NCc2ccccc2Cl)c1 -31.9%, CCN(c1ccccc1)S(=O)(=O)c1nnc(NC(=O)c2ccco2)s1 -26.4%, CCOc1ccc(NS(=O)(=O)c2ccc3nc(-c4ccccc4)[nH]c3c2)cc1 -30.7%, COc1cc(OC)c(Nc2c3c(nc4nc(-c5cccs5)nn24)CCCC3)cc1Cl -13.3%, Cc1nn(-c2ccccc2)c2sc(C(=O)Nc3cccc(O)c3)cc12 3.38%, Cc1ccc(-n2ncc(C(=O)Nc3c(Cl)cccc3Cl)c2C2CCNCC2)cc1 2.1%, Cc1csc2nc(COc3ccccc3NC(=O)c3ccccc3Cl)cc(=O)n12 -32.4%, COc1cc(CN(C(=O)COc2ccc(Cl)c(C)c2)c2ccccn2)cc(OC)c1OC -40.2%, Cc1ccc(-c2nc(CS(=O)(=O)CC(=O)Nc3cc(C)ccc3C)c(C)o2)cc1 -29.3%, COc1ccc(CCNC(=O)CCCn2nc(C)c3sc4ccccc4c3c2=O)cc1OC 0.098%
